Data taken from PubChem BioAssay AID1345082 (National Center for Advancing Translational Sciences (NCATS), 2018).
Values joined by “and” are separate entries in the source; they are usually repeats but may differ in a detail not shown here. Equal entries are not always repeated. The whole screen tested about 94,000 compounds, of which about 4,000 (4.3%) were called active. Inconclusive results, whose numbers are uncertain, are shown with a selection of clear calls. Calls follow the shape of the dose curve; as a rule, active = well fitted inhibition curve with a large enough effect; inconclusive = small, poorly fitted or top-dose-only effect; inactive = no such curve, though single readings can be large or run the other way. Potencies of inconclusive entries are doubtful fits and often do not repeat.

Experiment: Cytotoxic Profiling in NIH 3T3 Cell Line of Diverse Libraries Using Quantitative High-Throughput Screening; also: nearly all actives have a fitted effect of over 55% in size
Conditions: NIH 3T3 viability, CellTiter-Glo ATP luminescence, 48-72 h; series mostly up to 96.7 µM
Procedure, shortened: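 Mouse fibroblast NIH 3T3 cells, 400 per well, received compound via pintool and were incubated for 48 or 72 hr prior to CellTiter-Glo ATP luminescence measurement.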
Potency is read from the fitted curve at half-maximal effect; tags tell the direction and shape of the fitted curve.

Row | Compound | Potency
1 | CNC(=O)CCn1ncc2cc(OCc3ccccc3-c3cccnc3)ccc21 | inconclusive: 70.8 µM [inhibitor, partial curve]
2 | CCNC(=O)[C@@H]1C[C@H](NC(=O)c2cncnc2C)CN1CCCSC | inactive
3 | O=C(O)C1(Oc2ccc3ncccc3c2)CCN(c2cnccn2)CC1 | inactive
4 | CCn1ccc(C(=O)N2CCCC(c3noc(COc4ccccc4)n3)C2)n1 (configuration not stated) | inconclusive: 22.4 µM [inhibitor, partial curve, poor fit]
5 | O=C(Nc1ccccc1)O[C@@H]1CO[C@H]2[C@@H]1OC[C@@H]2NS(=O)(=O)c1cccc2cccnc12 | inactive
6 | Cc1cccc(NC(=O)N2CCc3nc(-c4ccccc4)[nH]c3C2)c1 | inconclusive: 39.8 µM [inhibitor, partial curve]
7 | COc1ccc2nc3n(c2c1)[C@@H](CNCc1ccc(C(F)(F)F)cc1)COC3 | inconclusive: 50.1 µM [inhibitor, partial curve, poor fit]
8 | Cc1ccc(-c2cc3c(=O)n(CCNC(=O)c4cccc(Cl)c4)ccn3n2)c(C)c1 | inconclusive: 39.8 µM [inhibitor, partial curve, poor fit]
9 | O=C(c1ccncc1)N1CCCN(CCn2nc3n(c2=O)CCCC3)CC1 | inactive
10 | CS(=O)(=O)N1CCC2(CCC(=O)N(CC3CC3)CC2)CC1 | inconclusive: 44.7 µM [inhibitor, partial curve, poor fit]
11 | CC(=O)N1CCN(c2ccc3nnc(-c4ccccc4)n3n2)CC1 | inconclusive: 31.6 µM [inhibitor, partial curve, poor fit] and inconclusive: 100 µM [inhibitor, partial curve]
12 | Cc1ccc(-c2cc(N3CCC(CNC(=O)c4cccc(N(C)C)c4)CC3)n[nH]2)cc1 | inconclusive: 50.1 µM [inhibitor, partial curve, poor fit]
13 | COc1ccc(C2CCC(=O)N2Cc2ccc3c(c2)OCO3)cc1 (configuration not stated) | inconclusive: 50.1 µM [inhibitor, partial curve, poor fit]
14 | O=C(NCCOc1ccccc1)c1ccc2c(c1)OCCN(c1ccccc1)C2 | inconclusive: 44.7 µM [inhibitor, full curve, poor fit]
15 | Cc1ccc(-c2cc3c(=O)n(CCNC(=O)c4ccc(F)c(F)c4)ccn3n2)c(C)c1 | inconclusive: 28.2 µM [inhibitor, partial curve, poor fit]
16 | O=C(NC1CC1)C1COC2(CCN(C(=O)c3ccc(F)cc3)CC2)N1C(=O)c1cccc(F)c1 (configuration not stated) | inconclusive: 79.4 µM [inhibitor, single point]
17 | CCCCOc1ccc(C(=O)N2CCC[C@H]2c2nc(-c3ccccc3)no2)cc1 | inconclusive: 70.8 µM [inhibitor, single point]
18 | O=C(Cc1cccc(Cl)c1)N1CCN(c2nccc(Nc3ccccc3F)n2)CC1 | inconclusive: 12.6 µM [inhibitor, full curve]
19 | Cc1nn2c(c1-c1ccccc1OCc1ccccc1)N(C(=O)CCc1cccnc1)CCC2 | inconclusive: 15.8 µM [inhibitor, full curve, poor fit]
20 | COc1ccc(-c2ccc(C(=O)N3CCOCC3)c(Cl)c2)nn1 | inconclusive: 56.2 µM [inhibitor, partial curve, poor fit]
21 | CCN1C(=O)C2CC3(CCN(C4CCN(C)CC4)CC3)CN2C1=O (configuration not stated) | inactive

Row | Compound | Potency
22 | Cc1ccc(CC(=O)N2CCCN(c3cc(-c4ccccc4)[nH]n3)CC2)cc1 | inconclusive: 39.8 µM [inhibitor, partial curve, poor fit]
23 | CN(C)[C@@H]1CN(C(=O)c2ccccc2)CC[C@]1(O)c1ccccc1 | inactive
24 | Cc1noc(C)c1-c1cc2cc(CN(C)C)oc2c(NCC(C)C)n1 | active: 50.1 µM
25 | COCCNC(=O)C1CN(c2cccc(Cl)c2)C(=O)N1 (configuration not stated) | inconclusive: 112 µM [inhibitor, single point]
26 | Cn1ncc2c(C(=O)N3CCCC3)cc(-c3cccc(F)c3)nc21 | inconclusive: 44.7 µM [inhibitor, partial curve, poor fit]
27 | O=C(O)c1ccc(CN2CC(CNC(=O)c3ccccc3)C3(C2)CN(c2ccccc2)C3)cc1 (configuration not stated) | inconclusive: 7.94 µM [inhibitor, full curve, poor fit]
28 | CS(=O)(=O)N1Cc2ccccc2CC2(CCCCN2Cc2cccnc2)C1 (configuration not stated) | inactive
29 | COCCN1Cc2ccc(Nc3ccc(OC)cc3)nc2C(C)(C(=O)NCC2CC2)C1 (configuration not stated) | inconclusive: 50.1 µM [inhibitor, partial curve, poor fit]
30 | O=C(OCc1ccccc1)N1CCC2(CC1)C(=O)NN=C2c1ccncc1 | inactive
31 | CCN1C(=O)C2CC3(CCN(C(=O)c4ccc(Cc5c(C)noc5C)o4)CC3)CN2C1=O (configuration not stated) | inactive
32 | COc1ccc(N2CC(C(=O)N3CCC(C(=O)NC4CC4)C3)NC2=O)cc1 (configuration not stated) | inactive
33 | Cc1cnc(C(=O)NC2C[C@H]3CC[C@@H](C2)N3C(=O)c2ccnn2C)cn1 (some centres not stated) | inconclusive: 44.7 µM [inhibitor, partial curve, poor fit]
34 | CCn1c(=O)c2ccnn2c2ccc(C(=O)NCc3ccccc3)cc21 | inconclusive: 44.7 µM [inhibitor, partial curve, poor fit]
35 | O=C(NC1CCCCC1)N1Cc2[nH]cnc2C[C@H]1c1nc(-c2ccc3ccccc3c2)no1 | inactive
36 | Fc1ccc(-c2cc(NC3CCCC3)nc3[nH]ccc23)nc1 | inconclusive: 50.1 µM [inhibitor, partial curve, poor fit]
37 | CCOc1ccc(NC(=O)c2ccc(-c3nnc4ccc(NC(=O)C5CC5)cn34)cc2)cc1 | inconclusive: 5.62 µM [inhibitor, full curve, poor fit]
38 | C=CCCOC(=O)N1C[C@@H](C(N)=O)[C@@H]2Oc3c(C)cccc3[C@@H]21 | inconclusive: 50.1 µM [inhibitor, partial curve, poor fit]
39 | COc1ccc(CC(=O)N2CCCN(c3nc4ncccc4o3)CC2)cc1 | inactive
40 | COc1ccc(CN2CCOc3nc(-c4cccc(NC(C)=O)c4)ncc3C2=O)cc1 | inconclusive: 10 µM [inhibitor, full curve, poor fit]
41 | Cc1ncc(S(C)(=O)=O)c(NCCn2nc(C)nc2C)n1 | inactive
42 | O=C(C1CCc2nnc(-c3ccc(Cl)cc3Cl)n21)N1CCCC1 (configuration not stated) | inconclusive: 50.1 µM [inhibitor, single point]

Row | Compound | Potency
43 | CCOc1ccccc1CNC(=O)c1cc2n(n1)CC(c1ccc3c(c1)OCO3)OC2 (configuration not stated) | inconclusive: 44.7 µM [inhibitor, partial curve, poor fit]
44 | C#CCNC(=O)C1CN(c2ccc(F)cc2)C(=O)N1 (configuration not stated) | inconclusive: 112 µM [inhibitor, partial curve, poor fit]
45 | O=C1NC(=NC2CCCCC2)C2(CCN(Cc3ccccc3)C2)N1c1cccnc1 (configuration not stated) | inconclusive: 56.2 µM [inhibitor, partial curve, poor fit]
46 | CC1(C)[C@H](Cc2cc(CC3CCCCC3)on2)C[C@@H]1NC(=O)C1CCCC1 | inconclusive: 63.1 µM [inhibitor, full curve]
47 | COc1ccccc1C(=O)N1CC(=O)N(CCCc2ccccc2)CC(O)C1 (configuration not stated) | inactive
48 | CN1C(=O)c2cccn2CC1CNC(=O)c1ccc2ccccc2n1 (configuration not stated) | inconclusive: 15.8 µM [inhibitor, partial curve]
49 | O=C(C1Cn2cccc2C(=O)N1Cc1cccnc1)N1CCN(c2ncccn2)CC1 (configuration not stated) | inactive
50 | O=C1NCc2ccccc2CC12CCCN2Cc1ccc(Cl)cc1 (configuration not stated) | inconclusive: 79.4 µM [inhibitor, partial curve, poor fit]
51 | Cc1cccc(OCCc2noc(C3CN(C(=O)CCC4CCCC4)C3)n2)c1 | inconclusive: 50.1 µM [inhibitor, partial curve, poor fit]
52 | CNC(=O)C1CCN(C(=O)c2ccc(-c3ncc4cnc(-c5ccccc5)cn34)cc2)CC1 | inconclusive: 56.2 µM [inhibitor, single point]
53 | CN1C(=O)CS(=O)(=O)C12CCN(C(=O)c1cc(F)ccc1F)CC2 | inactive
54 | CN(C)CCNC(=O)c1nc(-c2ccc(N3CCN(C)CC3)cc2)cc2c1ccn2C | active: 7.94 µM
55 | c1cc(-c2ccc3c(c2)OCCCO3)n2nc(C3CCC3)nc2n1 | inconclusive: 44.7 µM [inhibitor, partial curve, poor fit]
56 | Fc1ccc(-c2noc([C@@H]3Cc4nc[nH]c4CN3Cc3cc4ccccc4o3)n2)cc1Cl | inconclusive: 50.1 µM [inhibitor, partial curve, poor fit]
57 | NC(=O)[C@H]1C[C@@H](O)[C@H](O)[C@H]2[C@@H]1SC(=NCC1CCCCC1)N2Cc1ccc(F)cc1 | inconclusive: 100 µM [inhibitor, partial curve, poor fit]
58 | CC(C)c1noc([C@@H]2C[C@H]3C(=O)NCCCCCCN(C(=O)CCC4CCCC4)[C@H]3C2)n1 | inconclusive: 50.1 µM [inhibitor, partial curve, poor fit]
59 | Cc1ccccc1C(=O)N1CCN(c2cc(-c3ccc(Cl)cc3)[nH]n2)CC1 | inconclusive: 11.2 µM [inhibitor, full curve, poor fit]
60 | Cc1nnc([C@@H]2CC(F)(F)CN2C(=O)COc2ccc(Cl)cc2)o1 | inactive
61 | O=C(c1nnc(COc2cc(F)cc(F)c2)n1-c1ccccc1)N1CCC[C@@H]1c1cccc(F)c1 | active: 39.8 µM
62 | Cc1cc(C(=O)Nc2ccc([C@H]3OCC(=O)N(C)[C@@H]3CO)cc2)n(C)n1 | inactive
